Reference: paper PMC4336329 (PLoS ONE, 2015)
Out of some 310,000 compounds screened, about 14,000 (4.5%) showed an effect of 50% or more. Effects have a minus sign here. This is one part of the list.

biological target: human ether-à-go-go-related gene (hERG) potassium channel (human, UniProt Q12809); assay: primary screen, population patch clamp on CHO cells stably expressing hERG
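Further: peak tail current of the secondary pulse compared with the same well before compound.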

Sequence of human ether-à-go-go-related gene (hERG) potassium channel (Q12809 whole entry, looked up): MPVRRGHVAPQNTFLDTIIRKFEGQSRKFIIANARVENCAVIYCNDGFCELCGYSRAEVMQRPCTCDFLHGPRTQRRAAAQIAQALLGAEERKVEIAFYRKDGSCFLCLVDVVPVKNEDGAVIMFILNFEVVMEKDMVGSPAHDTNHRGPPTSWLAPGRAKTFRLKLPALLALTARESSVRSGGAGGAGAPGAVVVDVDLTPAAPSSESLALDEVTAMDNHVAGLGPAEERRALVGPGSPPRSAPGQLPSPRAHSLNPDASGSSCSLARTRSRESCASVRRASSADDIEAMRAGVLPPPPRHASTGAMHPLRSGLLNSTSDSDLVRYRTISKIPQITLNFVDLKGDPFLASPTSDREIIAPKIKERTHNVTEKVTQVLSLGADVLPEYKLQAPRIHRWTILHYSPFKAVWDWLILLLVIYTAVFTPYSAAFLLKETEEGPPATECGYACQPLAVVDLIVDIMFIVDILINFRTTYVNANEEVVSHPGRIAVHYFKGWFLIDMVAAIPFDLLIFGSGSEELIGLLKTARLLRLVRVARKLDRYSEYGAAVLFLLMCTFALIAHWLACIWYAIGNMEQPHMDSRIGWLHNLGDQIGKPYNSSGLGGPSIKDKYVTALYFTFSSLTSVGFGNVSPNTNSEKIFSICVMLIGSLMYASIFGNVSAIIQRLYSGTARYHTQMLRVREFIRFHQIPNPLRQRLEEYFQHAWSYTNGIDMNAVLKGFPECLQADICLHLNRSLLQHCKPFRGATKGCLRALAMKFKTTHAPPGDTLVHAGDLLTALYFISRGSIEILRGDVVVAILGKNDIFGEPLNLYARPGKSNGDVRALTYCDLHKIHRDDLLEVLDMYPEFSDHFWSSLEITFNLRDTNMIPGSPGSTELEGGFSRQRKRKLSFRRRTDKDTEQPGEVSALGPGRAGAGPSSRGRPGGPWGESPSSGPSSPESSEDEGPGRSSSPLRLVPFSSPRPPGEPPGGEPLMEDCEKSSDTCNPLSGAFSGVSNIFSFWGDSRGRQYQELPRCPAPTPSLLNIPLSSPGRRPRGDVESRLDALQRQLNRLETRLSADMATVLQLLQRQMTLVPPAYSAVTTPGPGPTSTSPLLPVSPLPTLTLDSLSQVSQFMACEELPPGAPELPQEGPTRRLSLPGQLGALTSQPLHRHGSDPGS

Structure (SMILES) | hERG current change (%, negative = inhibition) at 10uM
C[C@@H]1CC[C@@]2(O[C@@H](CCO)C[C@@H](O)[C@@H]2O)O1 | 18.6%
COc1cccc(/C=C/C(=O)N(C)CC(=O)Nc2ccc(Cl)c(C(F)(F)F)c2)c1 | 17.1%
O=C(NN/C(=N/S(=O)(=O)c1ccc(Cl)cc1)c1ccccc1)c1ccc(O)cc1 | 21.6%
Clc1ccccc1-c1ccc(/C=N/n2cnnc2)o1 | -24.1%
COc1cc(CNC(=O)C2CCCN2S(=O)(=O)c2ccccc2)cc(OC)c1OC (centres unmarked) | 11%
CCCCC(C(=O)O)C(C)CC(=O)Nc1ccn(-c2ccccc2)n1 (centres unmarked) | 12.1%
CCCN(CCC)c1ncnc2c1cnn2-c1ccc(OC)cc1 | -6.18%
CC1CC(C)CN(CC(=O)NC(c2ccccc2)c2ccccc2)C1.O=C(O)C(=O)O (centres unmarked) | -68.4%
COc1cccc(NC(=O)CSc2nnc(NC(=O)c3ccco3)s2)c1 | 2.95%
Clc1ccccc1-c1nnn(Cc2ccc(-c3nn[nH]n3)cc2)n1 | 9.34%
Br.COc1cc(NS(=O)(=O)c2ccc(Nc3nc(-c4cccc([N+](=O)[O-])c4)cs3)cc2)nc(OC)n1 | -21.1%
NS(=O)(=O)c1ccc(NC(=O)CCC(=O)c2cccs2)cc1 | 8.85%
O=C1CCC(C(=O)N2CCSCC2)CN1CCc1ccccc1 (centres unmarked) | 19.2%
O=C(COc1ccc(Cl)cc1Cl)OCC(=O)c1ccc[nH]1 | -22.1%
CN1CCN(CC(=O)Nc2ccc([N+](=O)[O-])cc2Br)CC1 | -70.9%
O=S1(=O)CCOC[C@H](Cc2ccccc2)N1Cc1ccc(Cl)cc1 | -11.3%
CCc1cccc(CC)c1NC(=O)CO/N=C(\N)CC(=O)NC1CCCCC1 | 15%
COc1ccc(NC(=O)Nc2nnc(CC(=O)Nc3ccccc3)s2)cc1 | 4.42%
O=C1CC(C(=O)Nc2ccc(C(=O)O)cc2)C(c2ccccc2)O1 (centres unmarked) | 28.3%

Structure (SMILES) | hERG current change (%, negative = inhibition) at 10uM
O=C(NCCN1CCCCC1)Nc1ccc(F)cc1F | -3.39%
Cc1ccc(C)c(C(C)NC(=O)c2ccc(Br)o2)c1 (centres unmarked) | 14%
C=CCNC(=O)COc1cc(C)ccc1C | 19%
COc1cccc(-c2noc(CCC(=O)NCC3CCCO3)n2)c1 (centres unmarked) | 17.4%
O=C(NCCN1CCOCC1)c1ccccc1-c1ccccc1 | 0.439%
Cc1ccc(NS(=O)(=O)c2ccc(C(=O)NCC(c3ccco3)N(C)C)cc2)cc1 (centres unmarked) | 3.12%
O=C(Nc1ccn(Cc2c(F)c(F)cc(F)c2F)n1)c1ccc(COc2ccc(Cl)cc2Cl)o1 | 7.3%
Cc1ccc(C(=O)Nc2nnc(-c3cccs3)s2)cc1C | 7.45%
Cc1ccnc(NC(=O)c2cccc(S(=O)(=O)N3CCOCC3)c2)c1 | -18.9%
Cc1ccc(S(=O)(=O)NCC(C)NC(=O)CN2CCOCC2)cc1 (centres unmarked) | 26%
CCC(=NCCc1ccc(OC)c(OC)c1)c1ccccc1O | 14.8%
S=c1[nH]nc(-c2ccc3ccccc3n2)n1-c1ccccc1 | 24.9%
C[C@@H](CSc1ccc(Br)cc1)CN1CC[C@H](C(C)(C)C)CCC1=O | 7.36%
COc1cccc(CN(C)C(=O)C(CCSC)NS(=O)(=O)c2ccc3c(c2)OCCO3)c1OC (centres unmarked) | -16.7%
CC(=O)N1CCC(c2c[nH]c3ccccc23)CC1 | 5.87%
COc1cc2nc(N3CCN(C(=O)[C@H]4COc5ccccc5O4)CC3)nc(N)c2cc1OC | -37.7%
O=C(N/N=C(\c1ccccc1)c1ccccn1)c1cccc([N+](=O)[O-])c1 | -65.6%
Cn1cc(C(=O)NC2CCCCCC2)c(=O)c2cc(S(=O)(=O)N3CCCC3)ccc21 | -9.15%
Cc1cccc(CN(C)CCc2ccccn2)c1 | -15.3%

Structure (SMILES) | hERG current change (%, negative = inhibition) at 10uM
CC1Cc2cc(/C(O)=C3\C(=O)C(=O)N(CCN(C)C)C3c3ccccc3F)ccc2O1 (centres unmarked) | 2.94%
CN1CCC(NC(=O)CCc2ccccc2)CC1 | 34.3%
COc1ccc(CNC[C@@H](CCCCN(C)Cc2ccc(OC)cc2)N2C[C@H](c3ccccc3)N(CCc3ccc(Cl)c(Cl)c3)C(=O)C2=O)cc1 | -80.3%
O=C(COC(=O)c1ccc2ncsc2c1)NCc1ccc(Cl)cc1 | -4.62%
COc1ccc(CCN2C(=NC(C)=O)SC3CS(=O)(=O)CC32)cc1OC (centres unmarked) | -5.49%
CCOC(=O)C(CCC#N)(CCC#N)C(=O)OCC | 8.69%
CCCc1nc2nc(C)c(NS(=O)(=O)c3ccc4c(c3)CCCC4)c(=O)n2[nH]1 | 12.5%
CCc1cccc(NC(=O)C2CCCN(S(=O)(=O)c3cnc[nH]3)C2)c1 (centres unmarked) | 5.64%
COc1ccc(-c2noc(-c3ccccc3F)n2)cc1 | 4.74%
O=C(CSc1ncnc2ccccc12)c1cccs1 | 4.14%
Cc1cccc(/C(N)=N/OC(=O)CCc2ccccc2)c1 | 0.58%
CSc1nsc(SCC(=O)Nc2ccc(C(N)=O)cc2)n1 | 15.6%
Cc1ccccc1/C(N)=N/OC(=O)c1cccs1 | -0.754%
Cn1c(N)c(C(=O)Nc2cccc(Cl)c2)c(=O)n(C)c1=O | 21.2%
CCCCOc1cccc(OCC(=O)Nc2nc3ccccc3[nH]2)c1 | 30.1%
COc1ccc(S(=O)(=O)N(CCCN2CCCC2=O)Cc2cc3c(C)ccc(C)c3[nH]c2=O)cc1 | -36.1%
COc1ccc(CC(=O)NNS(=O)(=O)c2ccc([N+](=O)[O-])cc2)cc1OC | -4.78%
CCc1ccc(NC(=O)CSC2=C(C#N)C(c3ccco3)C3=C(CCCC3=O)N2)cc1 (centres unmarked) | -1.71%
